Out of some 370,000 compounds screened, about 500 (0.14%) were called active. The inconclusive results got no clear call from the source; some entries with a clear call stand among them for comparison. Calls follow the shape of the dose curve; as a rule, active = well fitted activation curve with a large enough effect; inconclusive = small, poorly fitted or top-dose-only effect; inactive = no such curve, though single readings can be large or run the other way. Potencies of inconclusive entries are left out as doubtful fits.
Assay: qHTS of alpha-syn Inhibitors; also: nearly all actives have a fitted effect of over 65% in size; as to growth rescue (activation): % of control where 0% means no effect
Details: Yeast expressing alpha-synuclein, BacTiter-Glo, 24 h; Potency: growth rescue; growth rescue (activation): at 46.1 µM (top of the series)
Summary of the method: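 Readout is rescue of growth in alpha-synuclein-expressing yeast, so inhibitors of toxicity appear as activators. Growth after 24 hr at 30 deg C in galactose medium is quantified by luminescence.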
Potency is read from the fitted curve at half-maximal effect; tags tell the direction and shape of the fitted curve.

For `COOCC1(C(=O)OC)C[C@H](c2ccc(OC)cc2)N(Cc2ccccc2OC)[C@@H]1c1ccccc1C` (stereo partly drawn), which Potency is on record?
Its Potency is inconclusive [activator, single point].

For `CN1C(=O)C(=Cc2ccccc2OS(=O)(=O)c2ccccc2)C(=O)N(C)C1=O`, which Potency is on record?
Its Potency is “inactive”.

Which Potency does the source give for `CCCCn1c(NC(=O)c2ccco2)c(C(=O)OCC)c2nc3ccccc3nc21` here?
The Potency was “inactive”.

With `O=C(CCc1ccccc1)N1Cc2cc(N3CCCCC3)ccc2-n2nncc2C1` as the compound, how does the Potency read?
Its Potency is inconclusive [activator, single point].

With `CC=CC(C)=CC(C)C(=O)CC(O)CC1CC(=O)NC(=O)C1` (stereo not drawn) as the compound, how does the growth rescue (activation) read?
Its growth rescue (activation) is inconclusive: -37.6% [activator].

For `C[C@H]1CN([C@@H](C)CO)C(=O)CCCn2nncc2CO[C@H]1CN(C)C(=O)Oc1cccc2ccccc12`, which Potency is on record?
Its Potency is inconclusive [activator, single point].

With `Nc1ccc(Cl)cc1C(=O)c1ccccc1Cl` as the compound, how does the Potency read?
The Potency was inconclusive [activator, single point].

With `C=Cc1cc(OC)c2c(c1)c(=O)oc1c2cc(OC)c2c(O)ccc(C3OC(C)C(O)C(C)(O)C3O)c21` (stereo not drawn) as the compound, how does the Potency read?
Its Potency is active: 0.631 µM.

With `CCOC(=O)c1nc2ccccc2c(=O)n1-c1ccc(C)cc1C` as the compound, how does the Potency read?
Its Potency is inconclusive [activator, single point].

With `COC(=O)[C@@]12C[C@@H](CC(=O)NCc3cccc(C(F)(F)F)c3)C(=O)N(Cc3ccco3)C1=CCC(C)(C)C2` as the compound, how does the Potency read?
Its Potency is inconclusive [activator, single point].

With `O=C1c2ccccc2C2(c3ccc(Cl)cc3)NCCN12` (stereo not drawn) as the compound, how does the Potency read?
The Potency was inconclusive [activator, single point].

For `COc1ccc(Nc2nc(NC(C)C)nc3ccsc23)cc1OC`, which Potency is on record?
Its Potency is inconclusive [activator, single point].

Which Potency does the source give for `COc1ccc(Cl)cc1C(=O)Nc1ccc([N+](=O)[O-])cc1Cl` here?
The Potency was inconclusive [activator, single point].

Which Potency does the source give for `COC(=O)C1=C(c2ccc3ccccc3c2)C[C@@H]2CC[C@H]1N2C(=O)NCc1ccc(C(F)(F)F)cc1` here?
The Potency was inconclusive [activator, single point].

With `C[C@H]1[C@H](OC(=O)CCC(=O)NCc2ccc(C(=O)O)cc2)O[C@@H]2O[C@@]3(C)CC[C@H]4[C@H](C)CC[C@@H]1C24OO3` as the compound, how does the Potency read?
The Potency was “inactive”.

With `CC(C)OCCCNC(=O)c1c(N)n(CC2CCCO2)c2nc3ccccc3nc12` (stereo not drawn) as the compound, how does the Potency read?
Its Potency is inconclusive [activator, single point].

Which Potency does the source give for `CCCCCc1cc(O)c2c3c(c(=O)oc2c1)CN(C)CC3` here?
The Potency was inconclusive [activator, single point].

Which Potency does the source give for `Cc1cc(C(=O)CS(=O)(=O)c2ccc(F)cc2)cc(C)c1OC(=O)N(C)C` here?
The Potency was inconclusive [activator, single point].

Which Potency does the source give for `C=CCn1c(O)c(C(CC)=NCc2cc(OC)cc(OC)c2)c(=O)[nH]c1=O` here?
Its Potency is “inactive”.

For `C[C@H]1CN([C@@H](C)CO)C(=O)CCCn2nncc2CO[C@@H]1CN(C)C(=O)Oc1ccccc1`, which Potency is on record?
The Potency was inconclusive [activator, single point].

Which Potency does the source give for `CCCC1COC(Cn2cncn2)(c2ccc(Cl)cc2Cl)O1` (stereo not drawn) here?
Its Potency is “inactive”.

For `CCC(c1nnnn1Cc1ccccc1)N1CCC2(CC1)C(=O)NCN2c1ccccc1` (stereo not drawn), which Potency is on record?
The Potency was inconclusive [activator, single point].

With `CN1CC(C(=O)c2cccc(C(F)(F)F)c2)C(c2ccc(Cl)cc2)C1` (stereo not drawn) as the compound, how does the Potency read?
The Potency was inconclusive [activator, single point].

For `COc1ccc(/C=C2/C(=O)NC(=S)N(C3CC3)C2=O)cc1CN1C(=O)c2ccccc2C1=O`, which Potency is on record?
The Potency was inconclusive [activator, partial curve].

With `CC1=NN(Cc2c[nH]c3ccccc23)C(C)(C)C1` as the compound, how does the Potency read?
The Potency was inconclusive [activator, single point].

Which Potency does the source give for `Cc1ccc(NC(=O)CN2C(=O)CN=C(c3ccccc3)c3cc(Cl)ccc32)cc1` here?
Its Potency is inconclusive [activator, single point].

For `CCOC(=O)[C@]12Cc3cc(Cl)ccc3[C@H]1N(C)C(=O)c1ccccc12`, which Potency is on record?
Its Potency is inconclusive [activator, single point].

With `COc1ccc(OC(=O)N(C)C[C@H]2OCc3cnnn3CCCC(=O)N([C@@H](C)CO)C[C@H]2C)cc1` as the compound, how does the Potency read?
The Potency was inconclusive [activator, single point].

Which growth rescue (activation) does the source give for `COc1ccc(N2C(=O)/C(=C/c3cccs3)C(=O)NC2=S)cc1` here?
The growth rescue (activation) was inconclusive: -60.7% [activator].

Which Potency does the source give for `O=C1N(c2ccc(Cl)cc2)C(c2cccnc2)N2CCCN12` (stereo not drawn) here?
The Potency was inconclusive [activator, full curve, poor fit].

Which Potency does the source give for `COc1ccc(C(c2nnnn2-c2ccc3c(c2)OCCO3)N2CCC3(CC2)C(=O)NCN3c2ccccc2)cc1` (stereo not drawn) here?
The Potency was inconclusive [activator, single point].

For `C[C@@H]1CN([C@@H](C)CO)C(=O)CCCn2nncc2CO[C@H]1CN(C)C(=O)Nc1ccc(N2CCCCC2)cc1`, which Potency is on record?
Its Potency is inconclusive [activator, single point].

With `C=C(C)[C@@]12OC3(c4ccccc4)O[C@@H]1C1[C@@H]4O[C@]4(CO)[C@@H](O)[C@]4(O)C(=O)C(C)=C[C@H]4[C@@]1(O3)[C@H](C)[C@H]2OC(=O)/C=C/C=C/c1ccccc1` (stereo partly drawn) as the compound, how does the Potency read?
Its Potency is inconclusive [activator, single point].

Which Potency does the source give for `Cc1cc(=O)oc2cc(OCC(=O)N3C[C@H]4C[C@@H](C3)c3cccc(=O)n3C4)c(Cl)cc12` here?
The Potency was inconclusive [activator, single point].

With `COc1ccc(C(=O)C(C)(C)NO)cc1` as the compound, how does the Potency read?
Its Potency is inconclusive [activator, single point].

With `c1ccc2c(c1)Sc1ccccc1N2CC1CN2CCC1CC2` (stereo not drawn) as the compound, how does the Potency read?
The Potency was inconclusive [activator, single point].

Which Potency does the source give for `c1ccc(-c2ccc(C(c3ccccc3)n3ccnc3)cc2)cc1` (stereo not drawn) here?
The Potency was inconclusive [activator, partial curve].

Which growth rescue (activation) does the source give for `CC(=O)O[C@H]1C[C@@H]2OC3C=C(C)CCC3(C)[C@@]1(C)[C@@]21CO1` (stereo partly drawn) here?
Its growth rescue (activation) is inconclusive: -63.7% [activator].

With `COC(=O)C1=C(c2cc3ccccc3s2)C[C@@H]2CC[C@H]1N2C(=O)NCc1ccc(C(F)(F)F)cc1` as the compound, how does the Potency read?
Its Potency is inconclusive [activator, single point].

With `CCC(=NCc1cc(OC)cc(OC)c1)c1c(O)n(C)c(=O)n(C)c1=O` as the compound, how does the Potency read?
The Potency was inconclusive [activator, partial curve, poor fit].

Which Potency does the source give for `Cc1ccc(N=Cc2c(O)n(C)c(=O)n(C)c2=O)nc1` here?
The Potency was inconclusive [activator, single point].

With `O=C(C(=O)N1CC=C(c2ccccc2)CC1)c1c[nH]c2ccccc12` as the compound, how does the Potency read?
Its Potency is inconclusive [activator, single point].

For `Nc1ccc(Br)cc1C(=O)c1ccccc1`, which Potency is on record?
The Potency was inconclusive [activator, single point].

For `Clc1cccc(N2Cc3ccccc3-n3nncc3C2)c1`, which Potency is on record?
Its Potency is inconclusive [activator, single point].

For `CC1=NN(c2ccccc2)C(=O)C1/C=C1\C(=O)NC(=O)N(c2cc(C)cc(C)c2)C1=O` (stereo not drawn), which Potency is on record?
The Potency was “inactive”.

Which Potency does the source give for `COC(=O)C1=C(c2ccc(-c3ccccc3)c(F)c2)C[C@@H]2CC[C@H]1N2C(=O)NCc1cccc2ccccc12` here?
The Potency was inconclusive [activator, partial curve].

With `CN1C(=O)CN=C(c2ccc(Cl)cc2)c2cc(Cl)ccc21` as the compound, how does the Potency read?
Its Potency is inconclusive [activator, partial curve].

Which Potency does the source give for `O=C(COc1ccc(Cl)cc1)N1CCN(Cc2ccccc2)CC1` here?
Its Potency is “inactive”.

For `Cc1ccc(S(=O)(=O)N(C)C[C@H]2Oc3ncc(Br)cc3C(=O)N([C@H](C)CO)C[C@@H]2C)cc1`, which Potency is on record?
The Potency was inconclusive [activator, single point].

Which Potency does the source give for `COC(=O)C1=C(c2cc3ccccc3s2)C[C@@H]2CC[C@H]1N2C(=O)NCc1ccc(F)cc1` here?
The Potency was inconclusive [activator, single point].

With `CCOC(=O)[C@]12Cc3cc(OC)ccc3[C@H]1N(CC(=O)OC)C(=O)c1ccccc12` as the compound, how does the Potency read?
Its Potency is inconclusive [activator, single point].

For `O=c1c2ccccc2nc(-c2ccc(-c3ccccc3)cc2)n1-c1ccncc1`, which Potency is on record?
The Potency was inconclusive [activator, partial curve].

With `Cc1ccc(CNS(=O)(=O)c2cc3c(cc2C)N(C)CCO3)cc1` as the compound, how does the Potency read?
The Potency was inconclusive [activator, single point].

Which Potency does the source give for `C=CC[C@@H](CC/C=C/C=C/CC/C=C\[C@@H]1CSC([C@@H]2C[C@@H]2C)=N1)OC` here?
The Potency was inconclusive [activator, single point].

With `COc1cc(C(=O)N2C[C@H]3C[C@@H](C2)c2cccc(=O)n2C3)cc(OC)c1OC` as the compound, how does the Potency read?
The Potency was inconclusive [activator, single point].

For `CCCCn1c(-c2nonc2NC(=O)c2ccccc2Cl)nc2ccccc21`, which Potency is on record?
The Potency was inconclusive [activator, single point].

For `O=S(=O)(c1ccc(Cl)cc1)N1CCCCC1c1cccnc1` (stereo not drawn), which Potency is on record?
The Potency was inconclusive [activator, single point].

With `CN(C)[C@@H]1C(=O)C(C(N)=O)=C(O)[C@@]2(O)C(=O)C3=C(O)c4c(O)cccc4[C@@](C)(O)C3C[C@@H]12` (stereo partly drawn) as the compound, how does the Potency read?
The Potency was inconclusive [activator, single point].

Reference: PubChem BioAssay AID652106 (National Center for Advancing Translational Sciences (NCATS), 2013)
